# Results: article PMC4336329 (PLoS ONE, 2015)
# The whole screen tested about 310,000 compounds, of which about 14,000 (4.5%) showed an effect of 50% or more. Effects have a minus sign here. This is one part of the list.
# Target: human ether-à-go-go-related gene (hERG) potassium channel (human, UniProt Q12809)
# Test: primary screen, population patch clamp on CHO cells stably expressing hERG
# 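Further: peak tail current of the secondary pulse compared with the same well before compound.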
# Sequence of human ether-à-go-go-related gene (hERG) potassium channel (Q12809 whole entry, looked up): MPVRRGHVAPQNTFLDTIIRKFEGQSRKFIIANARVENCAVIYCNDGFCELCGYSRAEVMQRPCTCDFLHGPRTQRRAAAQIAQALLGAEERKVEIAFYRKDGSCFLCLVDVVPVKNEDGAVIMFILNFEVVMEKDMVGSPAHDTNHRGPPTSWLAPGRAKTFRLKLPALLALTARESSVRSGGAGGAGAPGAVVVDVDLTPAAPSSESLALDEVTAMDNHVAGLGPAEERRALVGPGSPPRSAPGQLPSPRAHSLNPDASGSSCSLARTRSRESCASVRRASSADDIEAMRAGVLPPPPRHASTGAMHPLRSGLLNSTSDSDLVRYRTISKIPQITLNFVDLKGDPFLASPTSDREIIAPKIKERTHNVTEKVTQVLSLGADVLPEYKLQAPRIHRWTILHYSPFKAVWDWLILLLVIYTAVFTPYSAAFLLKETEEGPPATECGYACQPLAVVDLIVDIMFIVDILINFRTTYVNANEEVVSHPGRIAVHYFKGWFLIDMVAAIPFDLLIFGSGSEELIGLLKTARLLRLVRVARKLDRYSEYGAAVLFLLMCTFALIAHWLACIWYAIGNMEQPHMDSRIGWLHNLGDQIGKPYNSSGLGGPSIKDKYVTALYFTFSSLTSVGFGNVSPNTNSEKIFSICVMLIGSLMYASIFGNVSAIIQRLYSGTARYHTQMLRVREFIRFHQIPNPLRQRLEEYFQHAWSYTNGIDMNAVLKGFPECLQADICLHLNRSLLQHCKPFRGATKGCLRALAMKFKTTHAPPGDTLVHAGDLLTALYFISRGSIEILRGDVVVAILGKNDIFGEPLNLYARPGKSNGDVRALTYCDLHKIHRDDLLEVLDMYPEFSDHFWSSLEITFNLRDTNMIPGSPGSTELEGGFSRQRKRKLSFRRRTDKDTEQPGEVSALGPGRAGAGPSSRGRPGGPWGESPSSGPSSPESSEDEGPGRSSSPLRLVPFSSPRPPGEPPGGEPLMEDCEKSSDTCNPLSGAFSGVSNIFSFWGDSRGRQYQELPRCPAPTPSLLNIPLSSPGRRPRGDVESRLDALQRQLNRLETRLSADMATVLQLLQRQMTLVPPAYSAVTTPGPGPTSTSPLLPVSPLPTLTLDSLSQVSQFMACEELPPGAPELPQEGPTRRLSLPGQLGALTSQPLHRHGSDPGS
row,Compound,"hERG current change (%, negative = inhibition) at 10uM"
1,CC(C)CNC(=S)NNC(=O)CC(C)O (centres unmarked),-7.34%
2,CCc1nnc(NC(=O)c2ccc(S(=O)(=O)N3CCCc4ccccc43)cc2)o1,15.6%
3,COc1ccc(Br)cc1S(=O)(=O)NCCCN1CCOCC1,25.1%
4,CCCCSc1nnc(-c2ccccc2NC(C)=O)c(=O)[nH]1,17%
5,CCc1ccc(-c2cc(C(=O)Nc3c(C)n(C)n(-c4ccccc4)c3=O)c3ccccc3n2)s1,-9.07%
6,COc1ccc(-n2cc(-c3ccccc3)c3c(NCCOCCO)ncnc32)cc1,-42.9%
7,N#Cc1c(-c2cccc(Br)c2)cc(-c2cccnc2)nc1N,5.45%
8,Cc1cc(C)nc(NC(=O)c2ccc(C)c(C)c2)n1,18%
9,COc1ccccc1NC(=S)N/N=C1\CC(C)(C)Oc2ccc(O)cc21,0.968%
10,Cc1cc(C)cc(N(C(=O)c2sc(C)nc2C)C(C(=O)NC(C)(C)C)c2ccncc2)c1 (centres unmarked),55.2%
11,Cc1nn(-c2cccc(C(F)(F)F)c2)c(=O)c2ccccc12,-17%
12,COc1ccccc1Oc1c(C)oc2cc(OC(=O)N(C)C)ccc2c1=O,-6.85%
13,O=C(CNC(=O)N1CC(=O)Nc2ccccc21)NCc1ccccc1Cl,23.9%
14,Cl.O=C(CN1CCCC1)N1c2ccccc2Sc2ccc(Cl)cc21,0.273%
15,Cc1ccc(CNC(=O)/C=C/c2c(Cl)cccc2Cl)cc1,1.22%
16,CC(C)N1C(=O)CCC1C(=O)NCc1cccs1 (centres unmarked),8.77%
17,Cc1cccc(C2=NCC(=O)N(CC(=O)NCc3ccco3)c3sc4c(c32)CCCC4)c1,-25.3%
18,O=C(NCc1cccc(F)c1)C1CCC(=O)N(C2CCCC2)C1 (centres unmarked),-5%
19,O=Cc1cc([N+](=O)[O-])ccc1N1CCN(Cc2ccc3c(c2)OCO3)CC1,-67.5%
20,O=c1[nH]c(SCc2cccc([N+](=O)[O-])c2)nc2[nH]ncc12,-10.6%
21,COc1cc(C2C(C#N)=C(N)N(c3ccc(F)cc3)C3=C2S(=O)(=O)CC3)ccc1O (centres unmarked),16.4%
22,Cc1ccc(C)c(N2CCN(C(=O)c3ccc(CSc4nc5ccncc5[nH]4)cc3)CC2)c1,-11.4%
23,CCCCn1ccnc1C(=O)c1cccc(S(=O)(=O)N2CC(C)CC(C)C2)c1 (centres unmarked),-14.4%

row,Compound,"hERG current change (%, negative = inhibition) at 10uM"
1,O=C(CSc1ccsc1[N+](=O)[O-])NCc1ccccc1,-2.29%
2,CCCOc1ccccc1C1NC(=O)NC(C)=C1C(=O)OCCOC(C)C (centres unmarked),-6.75%
3,Nc1nc(CSCCO)nc(Nc2ccccc2)n1,9.39%
4,CC(C)(C)NC(=S)N/N=C/c1cccnc1,-25.2%
5,Cn1c(=O)c2c(nc(NCC(O)CO)n2CCc2ccccc2)n(C)c1=O (centres unmarked),-5.52%
6,O=C(N/N=C/c1cccc(Oc2ccccc2)c1)c1cccc(O)c1,-6.66%
7,Cc1cc(Cl)c(S(=O)(=O)N(C)C)cc1OCC(N)=O,10.5%
8,O=C(Nc1ccc(C(=O)O)cc1)/C(=C\c1ccco1)NC(=O)c1ccc(Br)o1,2.41%
9,O=C(N=C1SC2CS(=O)(=O)CC2N1c1ccccc1F)C1CCCCC1 (centres unmarked),8%
10,Cc1oc(S(=O)(=O)N(C)C)cc1C(=O)Nc1ccc(Cl)cc1,8.63%
11,COc1ccc(F)cc1S(=O)(=O)N1CCCN(S(=O)(=O)c2cc(F)ccc2OC)CC1,-13.4%
12,CCOc1cc(C(=O)Nc2c3c(nn2C(C)(C)C)CS(=O)C3)cc(OCC)c1OCC (centres unmarked),-2.15%
13,O=c1[nH]c(=O)n(Cc2ccc(F)cc2)c(O)c1C=Nc1ccc(Cl)cc1,5.04%
14,CC(c1ccccc1)N1CC(C(=O)Nc2ccc(F)cc2)CC1=O (centres unmarked),4.93%
15,CCN1C(=O)/C(=C2/C=Cc3ccccc3N2CC)SC1=S,11%
16,CC(C)CC(c1nnnn1C1CCCCC1)N1CCN(C(=O)c2ccco2)CC1.Cl (centres unmarked),-44.1%
17,COC(=O)CCS(=O)(=O)c1ccc(Cl)cc1,8.83%
18,CSc1nc(-c2ccccc2)[nH]c(=S)c1C(C)=O,8.59%
19,COc1ccc(/C(C)=N\NC(=O)CNC(=O)C(c2ccccc2)c2ccccc2)cc1OC,19%
20,COc1cccc(CNC(=O)CCS(=O)(=O)c2ccc3c(c2)NC(=O)CO3)c1,-1.62%
21,Cc1nonc1NC(=O)CSc1nnc(N)s1,-4.13%
22,CCOC(=O)C1CCN(C(=O)COc2ccc(S(=O)(=O)NC(C)(C)C)cc2)CC1,2.22%
23,CCc1ccc(/C=N/NC(=S)NCCc2ccccc2)cc1,-24.1%

row,Compound,"hERG current change (%, negative = inhibition) at 10uM"
1,Cc1ccc(C)c(NC(=O)CCN2CCC(C)CC2)c1,-9.25%
2,CC1CN=C(NCc2ccccc2)S1 (centres unmarked),11%
3,O=C(CN1CCCCC1)NN(Cc1ccccc1)c1ccccc1.O=C(O)C(=O)O,-73.3%
4,CC1CCCC(NC(=O)CN(C)CC(=O)Nc2ccc(F)cc2)C1C (centres unmarked),-12.8%
5,Cc1nc2nc[nH]n2c(=O)c1NC(=O)CC12CC3CC(CC(C3)C1)C2,7.21%
6,Cc1cccn2c(=O)c(C=O)c(NCc3ccccc3)nc12,6.99%
7,O=C(NCC(F)(F)F)N1CCOCC1,9.6%
8,Cc1nc2sc(C(c3ccco3)N3CCN(c4ccc(F)cc4)CC3)c(O)n2n1 (centres unmarked),-40.8%
9,Br.Cc1ccc(C(=O)Cn2c(=N)n(N)c3ccccc32)cc1,-14.7%
10,CCCCNc1nc(N(C)c2ccccc2)nc(-n2ccnc2)n1,0.357%
11,COc1ccc(C(=O)COC(=O)C(CCSC)NS(=O)(=O)c2ccc(Cl)cc2)cc1 (centres unmarked),-2.17%
12,O=C(NCC1COc2ccccc2O1)C1C2C=CC3(CN(Cc4ccccc4Cl)C(=O)C13)O2 (centres unmarked),-20.4%
13,COC(=O)C1=C(CS(=O)(=O)c2ccc(Cl)cc2)NC(=O)NC1c1ccc(O)c(OC)c1 (centres unmarked),-4.22%
14,Cc1ccc(O/C=C2\OC(=O)c3ccccc32)cc1,12.6%
15,O=c1c2c(nc3nc(CCc4ccccc4)[nH]n13)CCC2,-15.6%
16,CCCN(CCC)CC(=O)Nc1cccc2c1OCO2.Cl,-2.02%
17,COc1ccc(OCC(=O)NNC(=O)c2nn(C)c(=O)c3ccccc23)cc1,-21.1%
18,Cc1ccc(NC(=O)CCn2cc(C(F)(F)F)ccc2=O)cc1,12.2%
19,Cc1ncoc1C(=O)N1CCCC(C(=O)Nc2cccc(-c3ccc(F)cc3)c2)C1 (centres unmarked),-36.4%
20,COCCN1CCN(C(=O)c2cc(COc3ccc(F)cc3F)on2)CC1,-0.284%
21,CCOc1ccccc1Nc1nc(-c2sc(NC(=O)c3ccccc3)nc2C)cs1,6.04%
22,O=C(c1cc([N+](=O)[O-])ccc1Cl)N1CCN(Cc2ccccc2)CC1,4.75%
23,CC1CCN(S(=O)(=O)c2ccc(NC(=O)CN3C(=O)NC(C)(c4ccccc4)C3=O)cc2)CC1 (centres unmarked),-28.1%

row,Compound,"hERG current change (%, negative = inhibition) at 10uM"
1,CNc1c([N+](=O)[O-])cnn1-c1ccccc1Cl,-12.8%
2,CN(CC(=O)Nc1cccc(S(=O)(=O)NC2=NCCCCC2)c1)Cc1ccc(C(C)(C)C)cc1.O=C(O)C(=O)O,6.28%
3,COc1ccc(N2C(=O)CN=C2Nc2nc(C)cc(C)n2)cc1,7.03%
4,CCn1c2ccccc2c2cc(/C=N/n3c(-c4cc(C)[nH]n4)n[nH]c3=S)ccc21,20.3%
5,COCCCn1c(=O)c2sccc2n(Cc2cc(C(=O)OC)ccc2OC)c1=O,-17.2%
6,CCCCC(=O)Nc1ccc(NC(=O)CCCC)nc1,-7.7%
7,CC1CCCCN1C(=S)NCc1ccco1 (centres unmarked),11.5%
8,CCCc1nnc(NC(=O)CCC(=O)NC2CCCCC2)s1,20%
9,CN(Cc1cnccn1)Cc1nc(Cc2ccccc2F)no1,-0.154%
10,COc1ccc(-n2c(=O)cc(N3CCOCC3)[nH]c2=O)cc1,9.71%
11,Cl.Cn1cnc(CCN)c1,-4.93%
12,O=C(O)CCCC(=O)NNc1nc(-c2ccccc2)c2cc(Cl)ccc2n1,22.7%
13,COC(=O)CCC(=O)c1ccn(S(=O)(=O)c2ccccc2)c1,4.25%
14,COc1ccc(S(=O)(=O)N(CC(=O)N2CCN(C)CC2)c2ccccc2)cc1OC,-1.06%
15,O=C(NCCCc1ccccc1)c1cncc(Br)c1,-12.6%
16,NCCCC[C@@H]1NC(=O)[C@H](CCC(=O)O)NC(=O)c2cc([N+](=O)[O-])cc(I)c2SC[C@@H](C(=O)NCC(N)=O)NC1=O,17.9%
17,CCC1CCCCN1CCCNC(=O)CN1C(=O)c2cccnc2Oc2ccc(C)cc21 (centres unmarked),-0.198%
18,COc1cc(NS(=O)(=O)c2ccc(NC(=O)CN3C(=O)c4ccccc4C3=O)cc2)ncn1,3.36%
19,Cc1ccc(-n2nc(C)c3c(C)c(CCC(=O)O)c(C)nc32)cc1,12.6%
20,CCOc1nc(S(=O)(=O)c2ccc(C)cc2)c(Cl)s1,-10.4%
